Laboratory results as given in PubChem BioAssay AID504845 (National Center for Advancing Translational Sciences (NCATS), 2011).
The campaign covered roughly 390,000 compounds. About 150 (0.038%) were called active. Inconclusive results, whose numbers are uncertain, are shown with a selection of clear calls. Calls follow the shape of the dose curve; as a rule, active = well fitted inhibition curve with a large enough effect; inconclusive = small, poorly fitted or top-dose-only effect; inactive = no such curve, though single readings can be large or run the other way. Potencies of inconclusive entries are doubtful fits and often do not repeat.

target: Regulator of G-protein signaling 4 (Homo sapiens) (UniProt P49798); test: Inhibitors of Regulator of G Protein Signaling (RGS) 4: qHTS; settings: Transcreener GDP fluorescence polarization, RGS4-accelerated GTP hydrolysis; series mostly up to 114 µM; activity change, negative = inhibition: at the top concentration; also: nearly all actives have a fitted effect of over 75% in size
Sequence of UniProt P49798 (P49798 whole entry, looked up): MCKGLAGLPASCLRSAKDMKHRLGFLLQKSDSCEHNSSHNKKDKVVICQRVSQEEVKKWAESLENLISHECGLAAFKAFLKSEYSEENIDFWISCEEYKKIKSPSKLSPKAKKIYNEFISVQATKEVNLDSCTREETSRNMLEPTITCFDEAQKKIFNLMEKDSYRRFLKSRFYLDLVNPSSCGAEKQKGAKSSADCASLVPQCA
In short: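 MLSMR compounds (23 nl, pin-transferred) preincubated 10 min at room temperature with a 500nM (2x) first reagent, then RGS4 at 900nM (2x) plus Transcreener GDP mix added; fluorescence polarization (620/688 nm) read before and after 90 min at 30 °C.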
% is scaled to controls: 0 for no effect and ±100 for the full control effect; potency is read from the fitted curve at half-maximal effect; tags tell the direction and shape of the fitted curve.

Q: CCNC(=O)COc1ccc(/C=C2\COc3ccccc3C2=O)cc1OC was tested. Which Potency did it give?
A: Its Potency is inconclusive: 79.4 µM [inhibitor, partial curve, poor fit].

Q: For O=C(c1cccc(S(=O)(=O)N2CCN(c3ccc(F)cc3)CC2)c1)N1CCCC(C(F)(F)F)C1 (stereo not drawn), which Potency is on record?
A: The Potency was inconclusive: 89.1 µM [inhibitor, single point].

Q: For O=C(NCc1ccccc1)c1nc(S(=O)(=O)Cc2ccccc2)ncc1Cl, which Potency is on record?
A: Its Potency is inconclusive: 44.7 µM [inhibitor, partial curve, poor fit].

Q: With CCOC(=O)c1c(C)[nH]c(C)c1S(=O)(=O)N(C)CC(=O)Nc1ccc(C)c(N(C)C)c1 as the compound, how does the “activity change, negative = inhibition” value read?
A: Its value is inactive: 8.81%.

Q: CCOC(=O)c1cc2c(=O)n3ccccc3nc2n(Cc2ccco2)c1=NC(=O)c1c(F)cccc1Cl was tested. Which Potency did it give?
A: The Potency was inconclusive: 25.1 µM [inhibitor, full curve, poor fit].

Q: With COc1ccc2c(C)cc(=S)[nH]c2c1 as the compound, how does the Potency read?
A: The Potency was inconclusive: 100 µM [inhibitor, partial curve, poor fit].

Q: COC(=O)Cn1c(C)c(/C=C/c2cc[n+](C)cc2)c2ccccc21 was tested. Which Potency did it give?
A: Its Potency is inconclusive: 89.1 µM [inhibitor, single point].

Q: How did the “activity change, negative = inhibition” value turn out when COc1ccc(/C=C2\N=C(C)OC2=O)cc1OC(C)=O was run?
A: The value was inactive: -22.6%.

Q: O=c1oc2ccccc2c(Nc2ccc3ccccc3c2)c1[N+](=O)[O-] was tested. Which Potency did it give?
A: The Potency was inconclusive: 79.4 µM [inhibitor, partial curve, poor fit].

Q: Which Potency does the source give for COc1cc(C(=O)NCCNC(=O)c2ccco2)cc(OC)c1OC here?
A: Its Potency is inconclusive: 79.4 µM [inhibitor, partial curve, poor fit].

Q: For CS(=O)(=O)c1ncc(Cl)c(C(=O)Nc2ccc(OC(F)F)cc2)n1, which Potency is on record?
A: Its Potency is inconclusive: 70.8 µM [inhibitor, partial curve, poor fit].

Q: For CN=C(c1ccc(C)cc1)n1c(=S)nc(-c2ccc(C)cc2)n(C)c1=S, which Potency is on record?
A: The Potency was inconclusive: 70.8 µM [inhibitor, partial curve, poor fit].

Q: For Cc1ccc(OCC(O)CN2CCN(c3ccc(C)cc3)CC2)cc1 (stereo not drawn), which “activity change, negative = inhibition” value is on record?
A: The value was inactive: -6.19%.

Q: COc1ccc(CCNC(=O)C(=O)NCC(c2ccco2)S(=O)(=O)c2ccccc2)cc1 (stereo not drawn) was tested. Which Potency did it give?
A: Its Potency is inconclusive: 100 µM [inhibitor, single point].

Q: Which Potency does the source give for CC1CN(C(=O)CSc2nnc3c(Cl)cc(Cl)cn23)CC(C)O1 (stereo not drawn) here?
A: Its Potency is inconclusive: 79.4 µM [inhibitor, single point].

Q: With CCC(C)n1c(NC(=O)c2ccccc2)c(C#N)c2nc3ccccc3nc21 (stereo not drawn) as the compound, how does the Potency read?
A: Its Potency is inconclusive: 89.1 µM [inhibitor, single point].

Q: How did the “activity change, negative = inhibition” value turn out when COc1cccc(C2C(C#N)=C(N)OC(C(C)(C)C)=C2C#N)c1 (stereo not drawn) was run?
A: Its value is inactive: -27.9%.

Q: CN(c1ccccc1)c1ccc(/C=C(/CCC(=O)O)c2nc3ccccc3s2)cc1[N+](=O)[O-] was tested. Which Potency did it give?
A: The Potency was inconclusive: 70.8 µM [inhibitor, single point].

Q: Which Potency does the source give for COc1cc(N=C2C(=O)N3c4c(cccc42)C(C)=CC3(C)C)cc(OC)c1 here?
A: The Potency was inconclusive: 89.1 µM [inhibitor, partial curve, poor fit].

Q: For CCOC(=O)C1(C)Oc2ccccc2C(C(=O)OC)=C1C(=O)OC (stereo not drawn), which Potency is on record?
A: The Potency was inconclusive: 35.5 µM [inhibitor, full curve, poor fit].

Q: For O=C(CN1CCC(Cc2ccccc2)CC1)N1CCc2ccccc2C1, which Potency is on record?
A: The Potency was inconclusive: 56.2 µM [inhibitor, partial curve, poor fit].

Q: How did the Potency turn out when O=C(COCC(=O)N/N=C/c1ccc(F)cc1)N/N=C/c1ccc(F)cc1 was run?
A: The Potency was inconclusive: 89.1 µM [inhibitor, single point].

Q: With CN1CCN(c2ccccc2NC(=O)c2ccc(-c3cccc(Cl)c3)o2)CC1 as the compound, how does the “activity change, negative = inhibition” value read?
A: The value was inactive: -14.9%.

Q: COc1ccc(-c2noc(CCC(=O)Nc3cccnc3)n2)cc1OC was tested. Which Potency did it give?
A: The Potency was inconclusive: 89.1 µM [inhibitor, single point].

Q: For Cc1ccc(-c2cc(NC(=O)CCl)n(-c3ccccc3)n2)cc1, which Potency is on record?
A: The Potency was inconclusive: 89.1 µM [inhibitor, single point].

Q: For Cc1ccc(C2=N/C(=C\c3ccc(OS(=O)(=O)c4ccc(C)cc4)cc3)C(=O)O2)cc1, which Potency is on record?
A: The Potency was inconclusive: 89.1 µM [inhibitor, single point].

Q: With CN(C)C(=S)NC(C)(C)C as the compound, how does the “activity change, negative = inhibition” value read?
A: Its value is inactive: -8.47%.

Q: How did the “activity change, negative = inhibition” value turn out when Cc1ccccc1Cc1c(C)nc2c(C(=O)NCc3ccco3)cnn2c1C was run?
A: The value was inactive: -41.2%.

Q: How did the Potency turn out when O=C(O)CN1C(=O)/C(=C\c2cc(Br)ccc2OCc2ccc([N+](=O)[O-])cc2)SC1=S was run?
A: Its Potency is inconclusive: 50.1 µM [inhibitor, partial curve, poor fit].

Q: How did the “activity change, negative = inhibition” value turn out when O=c1[nH]c(Cc2ccccc2)nc2scc(-c3ccccc3)c12 was run?
A: The value was inactive: -10.4%.

Q: With COc1cc(OC)c(NC(=O)N2CCCn3nc(C)cc32)cc1Cl as the compound, how does the Potency read?
A: Its Potency is inconclusive: 89.1 µM [inhibitor, single point].

Q: With O=C(Nc1nccs1)c1ccc(COc2ccc(Cl)cc2)o1 as the compound, how does the “activity change, negative = inhibition” value read?
A: The value was inactive: -8.6%.

Q: Which Potency does the source give for COc1ccccc1/C=C1/C(=O)N(c2cc(C)cc(C)c2)C(c2cccc([N+](=O)[O-])c2)S1(=O)=O (stereo not drawn) here?
A: The Potency was inconclusive: 79.4 µM [inhibitor, partial curve, poor fit].

Q: CCOC(=O)CSc1nnc(NCC(=O)OC)c(=O)[nH]1 was tested. Which Potency did it give?
A: The Potency was inconclusive: 79.4 µM [inhibitor, partial curve, poor fit].

Q: How did the Potency turn out when C[C@H](Cc1ccccc1)Nc1ncnc2c1ncn2[C@@H]1O[C@H](CO)[C@@H](O)[C@H]1O was run?
A: Its Potency is inconclusive: 1.5 µM [inhibitor, partial curve, poor fit].

Q: How did the Potency turn out when S=c1[nH]nc(-c2ccccn2)n1/N=C/c1ccc(-c2ccccc2Cl)o1 was run?
A: Its Potency is inconclusive: 44.7 µM [inhibitor, partial curve, poor fit].

Q: How did the Potency turn out when CCn1c(=S)[nH]c2c(=O)n(C)c(=O)n(C)c21 was run?
A: The Potency was inconclusive: 31.6 µM [inhibitor, full curve, poor fit].

Q: How did the Potency turn out when Cc1ccc(NC(=O)Nc2nnc(-c3ccncc3)s2)cc1C was run?
A: Its Potency is inconclusive: 89.1 µM [inhibitor, partial curve, poor fit].

Q: Which Potency does the source give for COc1cc(C(=S)N2CCCC2)cc(OC)c1O here?
A: The Potency was inconclusive: 89.1 µM [inhibitor, partial curve, poor fit].

Q: With CC(C)(C)OC(=O)NCCCC[C@H](NC(=O)c1[nH]cnc1C(=O)N[C@@H](Cc1ccccc1)C(=O)OC(C)(C)C)C(=O)OC(C)(C)C as the compound, how does the “activity change, negative = inhibition” value read?
A: Its value is inactive: -17.4%.

Q: For S=C1SCN(Cc2cccnc2)CN1Cc1cccnc1, which “activity change, negative = inhibition” value is on record?
A: Its value is inactive: -5.5%.

Q: With Cc1ccc(NS(=O)(=O)c2ccc(NC(=O)c3cccc(NC(=O)C(C)C)c3)cc2)cc1 as the compound, how does the Potency read?
A: Its Potency is inconclusive: 89.1 µM [inhibitor, single point].

Q: Which Potency does the source give for O=C(N/N=C\c1cccnc1)C1c2ccccc2Oc2ccccc21 here?
A: Its Potency is inconclusive: 89.1 µM [inhibitor, single point].

Q: For CCCOc1ccc(C(=O)Nc2ccc(NC(=O)c3ccccc3)c(Br)c2)cc1, which Potency is on record?
A: The Potency was inconclusive: 89.1 µM [inhibitor, single point].

Q: CCOC(=O)C1(CCOC)CCN(Cc2cc3ccccc3s2)CC1 was tested. Which Potency did it give?
A: Its Potency is inconclusive: 44.7 µM [inhibitor, partial curve, poor fit].

Q: With NC(=O)c1cc(NC(=O)c2cc(Br)c(Br)s2)cc(C(N)=O)c1 as the compound, how does the Potency read?
A: The Potency was inconclusive: 70.8 µM [inhibitor, partial curve, poor fit].

Q: Which Potency does the source give for O=c1[nH]c(/C=C\c2cccnc2)c([N+](=O)[O-])c(=O)[nH]1 here?
A: The Potency was inconclusive: 50.1 µM [inhibitor, partial curve, poor fit].

Q: With COc1ccc(C(=O)NCc2ccc3c(c2)OCO3)c(OC)c1 as the compound, how does the Potency read?
A: Its Potency is inconclusive: 56.2 µM [inhibitor, partial curve, poor fit].

Q: With Cc1ccc(C(=O)Nc2nnc(CC(=O)N/N=C/c3ccncc3)s2)cc1 as the compound, how does the Potency read?
A: The Potency was inconclusive: 50.1 µM [inhibitor, partial curve, poor fit].

Q: For CCOc1ccc2nc(NC(=O)CN3CCN(C)CC3)sc2c1, which Potency is on record?
A: Its Potency is inconclusive: 89.1 µM [inhibitor, single point].

Q: Which “activity change, negative = inhibition” value does the source give for COc1ccc(Cc2nc3ccc(C(=O)N4CCCN(C=O)CC4)cc3o2)cc1 here?
A: Its value is inactive: -2.09% [at 56.9 µM].

Q: For Cc1c(C(=O)N(C)C)sc2nc(-c3ccccn3)[nH]c(=O)c12, which “activity change, negative = inhibition” value is on record?
A: The value was inactive: 11.7%.

Q: With COc1ccc(C(=O)Nc2cc(C)c(O)c(-c3nc4ccccc4s3)c2)cc1OC as the compound, how does the “activity change, negative = inhibition” value read?
A: The value was inactive: -10.1%.

Q: Cc1ccc(S(=O)(=O)C/N=C(/NC(=S)N(c2ccccc2)c2ccccc2)c2ccccc2)cc1 was tested. Which Potency did it give?
A: Its Potency is inconclusive: 17.8 µM [inhibitor, full curve, poor fit].

Q: CC(C)C[C@@H](CNCC(=O)[C@H](CC(C)C)NC(=O)c1[nH]cnc1C(=O)N[C@H](CN)CC(C)C)NC(=O)c1nc[nH]c1C(=O)N[C@@H](CC(=O)O)C(=O)O was tested. Which “activity change, negative = inhibition” value did it give?
A: The value was inactive: -7.42%.

Q: For COc1cccc(CNCCSc2nnnn2C)c1OCc1ccccc1F, which “activity change, negative = inhibition” value is on record?
A: The value was inactive: 7.7%.

Q: CCOc1ccc(-c2ccc(SCc3ccccn3)nn2)cc1 was tested. Which “activity change, negative = inhibition” value did it give?
A: Its value is inactive: -0.11%.

Q: For CCSC1(SCC)N=C(N)C2(C#N)C(c3ccc(OC)c(OC)c3OC)C12C#N (stereo not drawn), which Potency is on record?
A: Its Potency is inconclusive: 50.1 µM [inhibitor, partial curve, poor fit].

Q: How did the Potency turn out when CN(C)C(=C(C#N)C#N)N1CCN(c2ccc(Cl)cc2)CC1 was run?
A: The Potency was inconclusive: 17.8 µM [inhibitor, full curve, poor fit].

Q: For COc1ccc(C2(C(=O)Nc3ccc(OC)cc3OC)CCCC2)cc1, which Potency is on record?
A: The Potency was inconclusive: 89.1 µM [inhibitor, partial curve, poor fit].

Q: For CCOC(=O)C1(Cc2ccccc2C(F)(F)F)CCN(C2CCCC2)CC1, which “activity change, negative = inhibition” value is on record?
A: The value was inactive: -4.07%.

Q: With COc1cc(NC(=O)c2cc3c(=O)n(Cc4cccs4)ccc3nc2C)cc(OC)c1OC as the compound, how does the Potency read?
A: Its Potency is inconclusive: 89.1 µM [inhibitor, single point].

Q: O=c1c(Cl)c(Cl)cnn1Cc1nnc(-c2ccc(Cl)cc2)o1 was tested. Which “activity change, negative = inhibition” value did it give?
A: The value was inactive: -47.3%.
